The list shows a part of the results.
B1: PhoQ; a variant is named by its letters at X, in order, P23837 (parent)
chain: MKKLLRLFFPLSLRVRFLLATAAVVLVLSLAYGMVALIGYSVSFDKTTFRLLRGESNLFYTLAKWENNKLHVELPENIDKQSPTMTLIYDENGQLLWAQRDVPWLMKMIQPDWLKSNGFHEIEADVNDTSLLLSGDHSIQQQLQEVREDDDDAEMTHSVAVNVYPATSRMPKLTIVVVDTIPVELKSSYMVWSWFIYVLSANLLLVIPLLWVAAWWSLRPIEALAKEVRELEEHNRELLNPATTRELTSLVRNLNRLLKSERERYDKYRTTLTDLTHSLKTPLXXLQXXLRSLRSEKMSVSDAEPVMLEQISRISQQIGYYLHRASMRGGTLLSRELHPVAPLLDNLTSALNKVYQRKGVNISLDISPEISFVGEQNDFVEVMGNVLDNACKYCLEFVEISARQTDEHLYIVVEDDGPGIPLSKREVIFDRGQRVDTLRPGQGVGLAVAREITEQYEGKIVAGESMLGGARMEVIFGRQHSAPKDE

Variants of: B1
Experiment: enrichment ratio after two sorts for PhoP signalling (ratio (wild type AVST 3.29)); higher = more functional
Conditions: with PhoP (E. coli)

Row | Variant | enrichment ratio
1 | PAYP | ≤ 0.25
2 | KYPI | ≤ 0.25
3 | AQLH | 13.8
4 | YGNG | ≤ 0.25
5 | WFQL | ≤ 0.25
6 | LLNW | ≤ 0.25
7 | WCDF | ≤ 0.25
8 | ADTC | ≤ 0.25
9 | YSLD | ≤ 0.25
10 | MGWR | ≤ 0.25
11 | PCGV | ≤ 0.25
12 | MISF | 3.65
13 | TGRS | ≤ 0.25
14 | ATGP | ≤ 0.25
15 | TRMN | ≤ 0.25
16 | RPNE | ≤ 0.25
17 | FTSC | ≤ 0.25
18 | RNNP | ≤ 0.25
19 | KQLM | ≤ 0.25
20 | HYLS | ≤ 0.25
21 | NLTG | ≤ 0.25
22 | IQET | ≤ 0.25
23 | SYCY | ≤ 0.25
24 | NVLF | ≤ 0.25

Row | Variant | enrichment ratio
25 | DEVD | ≤ 0.25
26 | APLI | 0.336
27 | ACQA | ≤ 0.25
28 | HKSQ | ≤ 0.25
29 | VKWI | ≤ 0.25
30 | TRHM | ≤ 0.25
31 | GHND | ≤ 0.25
32 | GTFT | ≤ 0.25
33 | DIWG | ≤ 0.25
34 | RSGV | ≤ 0.25
35 | LNEI | ≤ 0.25
36 | LTTV | ≤ 0.25
37 | AVQL | ≤ 0.25
38 | YLKY | ≤ 0.25
39 | IMVE | ≤ 0.25
40 | PHDQ | ≤ 0.25
41 | PLQK | ≤ 0.25
42 | NYVE | ≤ 0.25
43 | ENRC | ≤ 0.25
44 | YNRA | ≤ 0.25
45 | QYCY | ≤ 0.25
46 | RFTD | ≤ 0.25
47 | ANSH | 7.94
48 | VPYV | ≤ 0.25

Row | Variant | enrichment ratio
49 | SCAE | 8.81
50 | QCER | ≤ 0.25
51 | WQIV | ≤ 0.25
52 | QMFV | ≤ 0.25
53 | FQWC | ≤ 0.25
54 | RCEM | ≤ 0.25
55 | DYKV | ≤ 0.25
56 | DYPH | ≤ 0.25
57 | GQPE | ≤ 0.25
58 | TVMS | 6.79
59 | GQKY | ≤ 0.25
60 | YNRT | ≤ 0.25
61 | KPQS | ≤ 0.25
62 | WVTD | ≤ 0.25
63 | KTQH | ≤ 0.25
64 | GDFS | ≤ 0.25
65 | HYDN | ≤ 0.25
66 | LKDY | ≤ 0.25
67 | MVVW | ≤ 0.25
68 | TNAQ | 4.37
69 | KRAM | ≤ 0.25
70 | IADG | ≤ 0.25
71 | QGAP | ≤ 0.25
72 | TVIV | ≤ 0.25

Row | Variant | enrichment ratio
73 | HAPS | ≤ 0.25
74 | MFIM | ≤ 0.25
75 | GWFL | ≤ 0.25
76 | IRIL | ≤ 0.25
77 | RTVQ | ≤ 0.25
78 | IVRP | ≤ 0.25
79 | DDCF | ≤ 0.25
80 | PVHP | ≤ 0.25
81 | IKGQ | ≤ 0.25
82 | HEMR | ≤ 0.25
83 | FTCH | ≤ 0.25
84 | TVSN | 7
85 | GHCY | ≤ 0.25
86 | NYKM | ≤ 0.25
87 | WWPG | ≤ 0.25
88 | REVI | ≤ 0.25
89 | RQTN | ≤ 0.25
90 | WFAK | ≤ 0.25
91 | WPPP | ≤ 0.25
92 | MQNY | ≤ 0.25
93 | NMCK | ≤ 0.25
94 | MQCA | ≤ 0.25
95 | VRDH | ≤ 0.25
96 | NTAG | ≤ 0.25

Row | Variant | enrichment ratio
97 | LEED | ≤ 0.25
98 | LEDR | 0.543
99 | HPCC | ≤ 0.25
100 | QEIP | ≤ 0.25
101 | MHVA | ≤ 0.25
102 | HQVH | ≤ 0.25
103 | NADD | ≤ 0.25
104 | KEFY | ≤ 0.25
105 | LYKQ | ≤ 0.25
106 | TMSL | 13.1
107 | RNVQ | ≤ 0.25
108 | WCIL | ≤ 0.25
109 | IADQ | ≤ 0.25
110 | IFYP | ≤ 0.25
111 | SDLQ | 4.07
112 | TTSP | ≤ 0.25
113 | GAGP | ≤ 0.25
114 | ANSW | ≤ 0.25
115 | NMSC | ≤ 0.25
116 | SCFS | ≤ 0.25
117 | DWQK | ≤ 0.25
118 | VQRW | ≤ 0.25
119 | IRCV | ≤ 0.25
120 | YWQY | ≤ 0.25

Row | Variant | enrichment ratio
121 | PCWE | ≤ 0.25
122 | LLNN | ≤ 0.25
123 | GDVA | ≤ 0.25
124 | PKNE | ≤ 0.25
125 | VQYN | ≤ 0.25
126 | INVT | ≤ 0.25
127 | KCRY | ≤ 0.25
128 | DGKQ | ≤ 0.25
129 | FRFF | ≤ 0.25
130 | MHTT | ≤ 0.25
131 | LHPL | ≤ 0.25
132 | EVVL | ≤ 0.25
133 | ISLR | ≤ 0.25
134 | MFIA | ≤ 0.25
135 | GKIQ | ≤ 0.25
136 | TIMP | ≤ 0.25
137 | MGSI | 5.33
138 | LVVY | ≤ 0.25
139 | TFDT | ≤ 0.25
140 | ENYQ | ≤ 0.25
141 | WCSR | ≤ 0.25
142 | GCAL | 3.04
143 | HRAR | ≤ 0.25
144 | LVSS | ≤ 0.25

Row | Variant | enrichment ratio
145 | TRLM | 10.9
146 | VDDA | ≤ 0.25
147 | FVNM | ≤ 0.25
148 | HSFE | ≤ 0.25
149 | HPRF | ≤ 0.25
150 | GLAC | ≤ 0.25
151 | KRSD | ≤ 0.25
152 | SVST | 7.46
153 | PSED | ≤ 0.25
154 | SNSD | ≤ 0.25
155 | KATW | ≤ 0.25
156 | KDMT | ≤ 0.25
157 | ERDI | ≤ 0.25
158 | CFNL | ≤ 0.25
159 | RARM | ≤ 0.25
160 | LADH | ≤ 0.25
161 | TQGQ | 28
162 | KCKL | ≤ 0.25
163 | LKFM | ≤ 0.25
164 | MSIV | 7.95
165 | HWVQ | ≤ 0.25
166 | ARRY | ≤ 0.25
167 | AWSD | ≤ 0.25
168 | VFST | ≤ 0.25

Row | Variant | enrichment ratio
169 | GMMG | 1.1
170 | RQAK | ≤ 0.25
171 | GYMH | ≤ 0.25
172 | FMQG | ≤ 0.25
173 | HNQW | ≤ 0.25
174 | ECHS | ≤ 0.25
175 | NCWY | ≤ 0.25
176 | IECA | ≤ 0.25
177 | NDGW | ≤ 0.25
178 | LTME | ≤ 0.25
179 | YRCF | ≤ 0.25
180 | GYCD | ≤ 0.25
181 | RCDY | ≤ 0.25
182 | RFQM | ≤ 0.25
183 | NWPS | ≤ 0.25
184 | YINW | ≤ 0.25
185 | ANPS | ≤ 0.25
186 | MFSM | ≤ 0.25
187 | YDTK | ≤ 0.25
188 | PRLE | ≤ 0.25
189 | DHGM | ≤ 0.25
190 | HDYW | ≤ 0.25
191 | PTLM | ≤ 0.25
192 | FFMR | ≤ 0.25

Row | Variant | enrichment ratio
193 | KIWT | ≤ 0.25
194 | KDMD | 0.523
195 | QVNM | ≤ 0.25
196 | SISM | 16
197 | TFIH | ≤ 0.25
198 | SLKM | ≤ 0.25
199 | DSTF | ≤ 0.25
200 | LVFE | ≤ 0.25
201 | ADAG | ≤ 0.25
202 | YLWQ | ≤ 0.25
203 | IEKN | ≤ 0.25
204 | DQMN | ≤ 0.25
205 | ELRD | ≤ 0.25
206 | YNHI | ≤ 0.25
207 | MPAN | ≤ 0.25
208 | KVQG | ≤ 0.25
209 | HKQS | ≤ 0.25
210 | KPTW | ≤ 0.25
211 | AGAF | 3.66
212 | YKQV | ≤ 0.25
213 | LCAI | ≤ 0.25
214 | WHGL | ≤ 0.25
215 | AVME | ≤ 0.25
216 | QDFM | ≤ 0.25

Row | Variant | enrichment ratio
217 | YESI | ≤ 0.25
218 | VCFK | ≤ 0.25
219 | YDNW | ≤ 0.25
220 | KLTA | ≤ 0.25
221 | VWHM | ≤ 0.25
222 | KIDP | ≤ 0.25
223 | WFDF | ≤ 0.25
224 | FWAT | ≤ 0.25
225 | VNSQ | ≤ 0.25
226 | SMDC | ≤ 0.25
227 | KIHW | ≤ 0.25
228 | ELYM | ≤ 0.25
229 | FLDM | ≤ 0.25
230 | VFMH | ≤ 0.25
231 | CPFK | ≤ 0.25
232 | LCCV | ≤ 0.25
233 | NAWS | ≤ 0.25
234 | AFHY | ≤ 0.25
235 | IKTM | ≤ 0.25
236 | DFIL | ≤ 0.25
237 | NDAA | ≤ 0.25
238 | VTTQ | ≤ 0.25
239 | ICRP | ≤ 0.25
240 | AVIH | 0.25

Row | Variant | enrichment ratio
241 | FFVN | ≤ 0.25
242 | SFKA | ≤ 0.25
243 | LLLW | ≤ 0.25
244 | AYFQ | ≤ 0.25
245 | EYPF | ≤ 0.25
246 | KKFA | ≤ 0.25
247 | FYWE | ≤ 0.25
248 | FQRR | ≤ 0.25
249 | SGSM | 12.7
250 | KCGF | ≤ 0.25
251 | KCLA | ≤ 0.25
252 | FMVM | ≤ 0.25
253 | WRPR | ≤ 0.25
254 | RTSE | ≤ 0.25
255 | GPQR | ≤ 0.25
256 | SNMP | ≤ 0.25
257 | MIID | ≤ 0.25
258 | SKFG | ≤ 0.25
259 | TALR | 3.62
260 | QFHQ | ≤ 0.25
261 | WSDW | ≤ 0.25
262 | SGVY | 7.41
263 | QGTQ | ≤ 0.25
264 | FVGL | ≤ 0.25

Row | Variant | enrichment ratio
265 | VYVH | ≤ 0.25
266 | IRAL | ≤ 0.25
267 | RYER | ≤ 0.25
268 | YCCI | ≤ 0.25
269 | MQRP | ≤ 0.25
270 | NWQP | ≤ 0.25
271 | TRLV | 9.51
272 | RGHH | ≤ 0.25
273 | TCML | 16.7
274 | HCVL | ≤ 0.25
275 | PCCS | ≤ 0.25
276 | KITQ | ≤ 0.25
277 | IKPV | ≤ 0.25
278 | HIVC | ≤ 0.25
279 | SQQY | ≤ 0.25
280 | IYCR | ≤ 0.25
281 | EECP | ≤ 0.25
282 | LQLI | ≤ 0.25
283 | MHRW | ≤ 0.25
284 | DTCD | ≤ 0.25
285 | FMDP | ≤ 0.25
286 | VFQQ | ≤ 0.25
287 | HTWS | ≤ 0.25
288 | HGDI | ≤ 0.25

Row | Variant | enrichment ratio
289 | RAPG | ≤ 0.25
290 | HDEG | ≤ 0.25
291 | VHIP | ≤ 0.25
292 | HMQA | ≤ 0.25
293 | EELN | ≤ 0.25
294 | RAAY | ≤ 0.25
295 | MKHA | ≤ 0.25
296 | LHGY | ≤ 0.25
297 | LDEK | ≤ 0.25
298 | PISP | ≤ 0.25
299 | MYMT | ≤ 0.25
300 | EKFP | ≤ 0.25
301 | ITWE | ≤ 0.25
302 | FKIR | ≤ 0.25
303 | YEEG | ≤ 0.25
304 | LCFE | ≤ 0.25
305 | DGTE | ≤ 0.25
306 | VPFI | ≤ 0.25

Reference: a collection of fitness landscapes (doi:10.1126/science.1257360)
